Results as given in the supplement of paper PMC11876631.
± gives the standard deviation of the averaged measurements. Laboratory Escherichia coli strains with one amino-acid change in an essential protein, pooled on minimal glucose agar with carbenicillin or gentamicin at twice the control MIC (plus kanamycin and chloramphenicol for the plasmids), 48 h. Fold change of barcode share against drug-free plates; higher = less susceptible. Active = above 20 in both replicates (the paper's putatively resistant). '<' = one read or none on drug, '>' = one read or none on a drug-free plate. Shares are relative, so most strains fall below 1 when a few take over. Listed are strains with at least 15 reads on both drug-free plates, and hits; most hits rest on fewer reference reads. Replicate rank correlation about 0.5. Edits are read from barcodes.

Target: Escherichia coli (laboratory strain)
Assay: barcode share on antibiotic plates over drug-free plates; higher = less susceptible
Experimental: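 A pool of E. coli strains, each edited to carry one amino-acid change in an essential protein, was grown for 48 h on minimal glucose agar with or without antibiotic; strain barcodes were sequenced; mean of two replicates.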

[1] = antibiotic: carbenicillin, 2× MIC (3.1 µg/mL)
[2] = antibiotic: gentamicin, 2× MIC (MIC 0.45 µg/mL)

Row | Protein | fold change of barcode share [1] | fold change of barcode share [2]
1 | acpS V11Q (protein) MAILGLGTDIQEIARIEAVIARSGDRLARRVLSDNEWAIWKTHHQPVRFLAKRFAVKEAAAKAFGTGIRNGLAFNQFEVFNDELGKPRLRLWGEALKLAEKLGVANMHVTLADERHYACATVIIES | 0.245 ± 0.0063 | 0.00542 ± 0.0043
2 | cysJ V364A (protein) MTTQVPPSALLPLNPEQLARLQAATTDLTPTQLAWVSGYFWGVLNQQPAALAATPAPAAEMPGITIISASQTGNARRVAEALRDDLLAAKLNVKLVNAGDYKFKQIASEKLLIVVTSTQGEGEPPEEAVALHKFLFSKKAPKLENTAFAVFSLGDSSYEFFCQSGKDFDSKLAELGGERLLDRVDADVEYQAAASEWRARVVDALKSRAPVAAPSQSVATGAVNEIHTSPYSKDAPLVASLSVNQKITGRNSEKDVRHIEIDLGDSGMRYQPGDALGVWYQNDPALVKELVELLWLKGDEPVTVEGKTLPLNEALQWHFELTVNTANIVENYATLTRSETLLPLVGDKAKLQHYAATTPIVDMARFSPAQLDAEALINLLRPLTPRLYSIASSQAEVENEVHVTVGVVRYDVEGRARAGGASSFLADRVEEEGEVRVFIEHNDNFRLPANPETPVIMIGPGTGIAPFRAFMQQRAADEAPGKNWLFFGNPHFTEDFLYQVEWQRYVKDGVLTRIDLAWSRDQKEKVYVQDKLREQGAELWRWINDGAHIYVCGDANRMAKDVEQALLEVIAEFGGMDTEAADEFLSELRVERRYQRDVY | 0.19 ± 0.09 | 0.0225 ± 0.0055
3 | cysJ V364W (protein) MTTQVPPSALLPLNPEQLARLQAATTDLTPTQLAWVSGYFWGVLNQQPAALAATPAPAAEMPGITIISASQTGNARRVAEALRDDLLAAKLNVKLVNAGDYKFKQIASEKLLIVVTSTQGEGEPPEEAVALHKFLFSKKAPKLENTAFAVFSLGDSSYEFFCQSGKDFDSKLAELGGERLLDRVDADVEYQAAASEWRARVVDALKSRAPVAAPSQSVATGAVNEIHTSPYSKDAPLVASLSVNQKITGRNSEKDVRHIEIDLGDSGMRYQPGDALGVWYQNDPALVKELVELLWLKGDEPVTVEGKTLPLNEALQWHFELTVNTANIVENYATLTRSETLLPLVGDKAKLQHYAATTPIVDMWRFSPAQLDAEALINLLRPLTPRLYSIASSQAEVENEVHVTVGVVRYDVEGRARAGGASSFLADRVEEEGEVRVFIEHNDNFRLPANPETPVIMIGPGTGIAPFRAFMQQRAADEAPGKNWLFFGNPHFTEDFLYQVEWQRYVKDGVLTRIDLAWSRDQKEKVYVQDKLREQGAELWRWINDGAHIYVCGDANRMAKDVEQALLEVIAEFGGMDTEAADEFLSELRVERRYQRDVY | 0.657 ± 0.47 | < 0.00938
4 | cysJ V364Q (protein) MTTQVPPSALLPLNPEQLARLQAATTDLTPTQLAWVSGYFWGVLNQQPAALAATPAPAAEMPGITIISASQTGNARRVAEALRDDLLAAKLNVKLVNAGDYKFKQIASEKLLIVVTSTQGEGEPPEEAVALHKFLFSKKAPKLENTAFAVFSLGDSSYEFFCQSGKDFDSKLAELGGERLLDRVDADVEYQAAASEWRARVVDALKSRAPVAAPSQSVATGAVNEIHTSPYSKDAPLVASLSVNQKITGRNSEKDVRHIEIDLGDSGMRYQPGDALGVWYQNDPALVKELVELLWLKGDEPVTVEGKTLPLNEALQWHFELTVNTANIVENYATLTRSETLLPLVGDKAKLQHYAATTPIVDMQRFSPAQLDAEALINLLRPLTPRLYSIASSQAEVENEVHVTVGVVRYDVEGRARAGGASSFLADRVEEEGEVRVFIEHNDNFRLPANPETPVIMIGPGTGIAPFRAFMQQRAADEAPGKNWLFFGNPHFTEDFLYQVEWQRYVKDGVLTRIDLAWSRDQKEKVYVQDKLREQGAELWRWINDGAHIYVCGDANRMAKDVEQALLEVIAEFGGMDTEAADEFLSELRVERRYQRDVY | 0.324 ± 0.071 | < 0.0139
5 | cysJ V364D (protein) MTTQVPPSALLPLNPEQLARLQAATTDLTPTQLAWVSGYFWGVLNQQPAALAATPAPAAEMPGITIISASQTGNARRVAEALRDDLLAAKLNVKLVNAGDYKFKQIASEKLLIVVTSTQGEGEPPEEAVALHKFLFSKKAPKLENTAFAVFSLGDSSYEFFCQSGKDFDSKLAELGGERLLDRVDADVEYQAAASEWRARVVDALKSRAPVAAPSQSVATGAVNEIHTSPYSKDAPLVASLSVNQKITGRNSEKDVRHIEIDLGDSGMRYQPGDALGVWYQNDPALVKELVELLWLKGDEPVTVEGKTLPLNEALQWHFELTVNTANIVENYATLTRSETLLPLVGDKAKLQHYAATTPIVDMDRFSPAQLDAEALINLLRPLTPRLYSIASSQAEVENEVHVTVGVVRYDVEGRARAGGASSFLADRVEEEGEVRVFIEHNDNFRLPANPETPVIMIGPGTGIAPFRAFMQQRAADEAPGKNWLFFGNPHFTEDFLYQVEWQRYVKDGVLTRIDLAWSRDQKEKVYVQDKLREQGAELWRWINDGAHIYVCGDANRMAKDVEQALLEVIAEFGGMDTEAADEFLSELRVERRYQRDVY | 0.418 ± 0.043 | 0.0405 ± 0.024
6 | cysJ V364P (protein) MTTQVPPSALLPLNPEQLARLQAATTDLTPTQLAWVSGYFWGVLNQQPAALAATPAPAAEMPGITIISASQTGNARRVAEALRDDLLAAKLNVKLVNAGDYKFKQIASEKLLIVVTSTQGEGEPPEEAVALHKFLFSKKAPKLENTAFAVFSLGDSSYEFFCQSGKDFDSKLAELGGERLLDRVDADVEYQAAASEWRARVVDALKSRAPVAAPSQSVATGAVNEIHTSPYSKDAPLVASLSVNQKITGRNSEKDVRHIEIDLGDSGMRYQPGDALGVWYQNDPALVKELVELLWLKGDEPVTVEGKTLPLNEALQWHFELTVNTANIVENYATLTRSETLLPLVGDKAKLQHYAATTPIVDMPRFSPAQLDAEALINLLRPLTPRLYSIASSQAEVENEVHVTVGVVRYDVEGRARAGGASSFLADRVEEEGEVRVFIEHNDNFRLPANPETPVIMIGPGTGIAPFRAFMQQRAADEAPGKNWLFFGNPHFTEDFLYQVEWQRYVKDGVLTRIDLAWSRDQKEKVYVQDKLREQGAELWRWINDGAHIYVCGDANRMAKDVEQALLEVIAEFGGMDTEAADEFLSELRVERRYQRDVY | 0.301 ± 0.0072 | < 0.0091
7 | cysJ M457W (protein) MTTQVPPSALLPLNPEQLARLQAATTDLTPTQLAWVSGYFWGVLNQQPAALAATPAPAAEMPGITIISASQTGNARRVAEALRDDLLAAKLNVKLVNAGDYKFKQIASEKLLIVVTSTQGEGEPPEEAVALHKFLFSKKAPKLENTAFAVFSLGDSSYEFFCQSGKDFDSKLAELGGERLLDRVDADVEYQAAASEWRARVVDALKSRAPVAAPSQSVATGAVNEIHTSPYSKDAPLVASLSVNQKITGRNSEKDVRHIEIDLGDSGMRYQPGDALGVWYQNDPALVKELVELLWLKGDEPVTVEGKTLPLNEALQWHFELTVNTANIVENYATLTRSETLLPLVGDKAKLQHYAATTPIVDMVRFSPAQLDAEALINLLRPLTPRLYSIASSQAEVENEVHVTVGVVRYDVEGRARAGGASSFLADRVEEEGEVRVFIEHNDNFRLPANPETPVIWIGPGTGIAPFRAFMQQRAADEAPGKNWLFFGNPHFTEDFLYQVEWQRYVKDGVLTRIDLAWSRDQKEKVYVQDKLREQGAELWRWINDGAHIYVCGDANRMAKDVEQALLEVIAEFGGMDTEAADEFLSELRVERRYQRDVY | 0.391 ± 0.12 | 
8 | cysJ M363A (protein) MTTQVPPSALLPLNPEQLARLQAATTDLTPTQLAWVSGYFWGVLNQQPAALAATPAPAAEMPGITIISASQTGNARRVAEALRDDLLAAKLNVKLVNAGDYKFKQIASEKLLIVVTSTQGEGEPPEEAVALHKFLFSKKAPKLENTAFAVFSLGDSSYEFFCQSGKDFDSKLAELGGERLLDRVDADVEYQAAASEWRARVVDALKSRAPVAAPSQSVATGAVNEIHTSPYSKDAPLVASLSVNQKITGRNSEKDVRHIEIDLGDSGMRYQPGDALGVWYQNDPALVKELVELLWLKGDEPVTVEGKTLPLNEALQWHFELTVNTANIVENYATLTRSETLLPLVGDKAKLQHYAATTPIVDAVRFSPAQLDAEALINLLRPLTPRLYSIASSQAEVENEVHVTVGVVRYDVEGRARAGGASSFLADRVEEEGEVRVFIEHNDNFRLPANPETPVIMIGPGTGIAPFRAFMQQRAADEAPGKNWLFFGNPHFTEDFLYQVEWQRYVKDGVLTRIDLAWSRDQKEKVYVQDKLREQGAELWRWINDGAHIYVCGDANRMAKDVEQALLEVIAEFGGMDTEAADEFLSELRVERRYQRDVY | 0.492 ± 0.29 | 0.0206 ± 0.016
9 | cysJ M363W (protein) MTTQVPPSALLPLNPEQLARLQAATTDLTPTQLAWVSGYFWGVLNQQPAALAATPAPAAEMPGITIISASQTGNARRVAEALRDDLLAAKLNVKLVNAGDYKFKQIASEKLLIVVTSTQGEGEPPEEAVALHKFLFSKKAPKLENTAFAVFSLGDSSYEFFCQSGKDFDSKLAELGGERLLDRVDADVEYQAAASEWRARVVDALKSRAPVAAPSQSVATGAVNEIHTSPYSKDAPLVASLSVNQKITGRNSEKDVRHIEIDLGDSGMRYQPGDALGVWYQNDPALVKELVELLWLKGDEPVTVEGKTLPLNEALQWHFELTVNTANIVENYATLTRSETLLPLVGDKAKLQHYAATTPIVDWVRFSPAQLDAEALINLLRPLTPRLYSIASSQAEVENEVHVTVGVVRYDVEGRARAGGASSFLADRVEEEGEVRVFIEHNDNFRLPANPETPVIMIGPGTGIAPFRAFMQQRAADEAPGKNWLFFGNPHFTEDFLYQVEWQRYVKDGVLTRIDLAWSRDQKEKVYVQDKLREQGAELWRWINDGAHIYVCGDANRMAKDVEQALLEVIAEFGGMDTEAADEFLSELRVERRYQRDVY | 0.405 ± 0.0068 | 0.0182 ± 0.0035
10 | cysJ M363Q (protein) MTTQVPPSALLPLNPEQLARLQAATTDLTPTQLAWVSGYFWGVLNQQPAALAATPAPAAEMPGITIISASQTGNARRVAEALRDDLLAAKLNVKLVNAGDYKFKQIASEKLLIVVTSTQGEGEPPEEAVALHKFLFSKKAPKLENTAFAVFSLGDSSYEFFCQSGKDFDSKLAELGGERLLDRVDADVEYQAAASEWRARVVDALKSRAPVAAPSQSVATGAVNEIHTSPYSKDAPLVASLSVNQKITGRNSEKDVRHIEIDLGDSGMRYQPGDALGVWYQNDPALVKELVELLWLKGDEPVTVEGKTLPLNEALQWHFELTVNTANIVENYATLTRSETLLPLVGDKAKLQHYAATTPIVDQVRFSPAQLDAEALINLLRPLTPRLYSIASSQAEVENEVHVTVGVVRYDVEGRARAGGASSFLADRVEEEGEVRVFIEHNDNFRLPANPETPVIMIGPGTGIAPFRAFMQQRAADEAPGKNWLFFGNPHFTEDFLYQVEWQRYVKDGVLTRIDLAWSRDQKEKVYVQDKLREQGAELWRWINDGAHIYVCGDANRMAKDVEQALLEVIAEFGGMDTEAADEFLSELRVERRYQRDVY | 0.314 ± 0.16 | 0.0137 ± 0.0032
